Results reported in the supplement of paper PMC11166567.
This is one part of the list.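 The calls were made as follows: active = permutation test q below 0.05 after Benjamini-Hochberg correction; inactive = q of 0.05 or more.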

Each compound was assayed on A549 (assay: mean average precision of replicate retrieval against DMSO controls (Cell Painting phenotypic activity) (fraction (0-1)); higher = stronger, more reproducible morphological phenotype distinct from DMSO; extreme values may be limits of the assay). Details: 48 h; 5 µM.
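Also: cosine similarity of well-level aggregated Cell Painting profiles ranks each compound's replicate wells against DMSO wells, four replicate plates, significance from 100,000 rank shuffles.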

Row | SMILES | mean average precision
1 | O=C(CCNNC(=O)c1ccncc1)NCc1ccccc1 | active: 0.452
2 | c1cc(OCCN2CCCCC2)cc(-c2n[nH]c3ccc(-c4ncn[nH]4)cc23)c1 | active: 1
3 | CCCCC(C)(O)C/C=C/[C@H]1[C@H](O)CC(=O)[C@@H]1CCCCCCC(=O)OC (stereo partly drawn) | active: 1
4 | O=C(/C=C/c1cccnc1)NCCCCC1CCN(C(=O)c2ccccc2)CC1 | active: 1
5 | Oc1ccc(-c2nc(-c3ccc(F)cc3)c(-c3ccncc3)[nH]2)cc1 | active: 1
6 | CC(=O)N[C@@H](CS)C(=O)O | active: 0.619
7 | CC(OC(=O)NCC1(CC(=O)O)CCCCC1)OC(=O)C(C)C (stereo not drawn) | active: 0.918
8 | OC[C@H]1O[C@@H](n2cnc3c2NC=NC[C@H]3O)C[C@@H]1O | active: 0.652
9 | O=c1ccc2ccccc2o1 | active: 0.363
10 | Cc1ccc(Cl)c(Nc2ccccc2C(=O)O)c1Cl | active: 0.744
11 | CCCCCCCC/C=C\CCCCCCCC(=O)N[C@@H](CO)Cc1ccc(O)cc1 | active: 0.608
12 | Nc1nnc(Sc2ncc([N+](=O)[O-])s2)s1 | active: 1
13 | Nc1nc(=S)c2[nH]cnc2[nH]1 | active: 1
14 | c1ccc(C(O[C@@H]2CCCN(CCc3ccc4c(c3)OCO4)C2)c2ccccc2)cc1 | active: 0.591
15 | COc1cc2c(Oc3ccc4[nH]c(C)cc4c3F)ncnc2cc1OCCCN1CCCC1 | active: 1
16 | O=C(NCCN1CCC(n2c(=O)[nH]c3cc(Cl)ccc32)CC1)c1ccc(F)cc1 | active: 1
17 | CCOC(=O)C(C)=O | active: 0.615
18 | c1ccc(-c2nn3c(c2-c2ccnc4cc(OCCN5CCOCC5)ccc24)CCC3)nc1 | active: 1
19 | Cc1ccc(NC(=O)c2cccc(N(C)C)c2)cc1NC(=O)c1ccc(O)cc1 | active: 1
20 | CC[C@@H]1C(=O)N(C)c2cnc(Nc3ccc(C(=O)NC4CCN(C)CC4)cc3OC)nc2N1C1CCCC1 | active: 1
21 | CCCc1cc(C)[nH]c(=O)c1CNC(=O)c1cc(-c2ccc(N3CCN(C(C)C)CC3)nc2)cc2c1cnn2C(C)C | active: 1
22 | Nc1nc(N)c2nc(-c3ccccc3)c(N)nc2n1 | active: 0.979
23 | NC(CO)(CO)CO | active: 0.494

What follows are compounds tested on U2OS in the same assay as above. Details: 24 h; 5 µM.

Row | SMILES | mean average precision
24 | Cc1c(C)c2c(c(C)c1O)CC[C@@](C)(CCC[C@H](C)CCC[C@H](C)CCCC(C)C)O2 | inactive: 0.125
25 | Cc1ccc([N+](=O)[O-])cc1S(=O)(=O)N(C)C | inactive: 0.281
26 | Cc1nn(C)c2nc(NNC(=O)Nc3cc(Cl)nc(Cl)c3)cc(C(C)C)c12 | active: 1
27 | CC(=O)c1ccc(S(=O)(=O)NC(=O)NC2CCCCC2)cc1 | inactive: 0.294
28 | c1cc(-c2cnn3cc(-c4ccc(N5CCNCC5)cc4)cnc23)c2cccnc2c1 | active: 0.958
29 | C=CC(=O)Nc1cccc(Nc2nc(Nc3ccc(OCCOC)cc3)ncc2F)c1 | active: 1
30 | COCCOC(=O)C1=C(C)NC(C)=C(C(=O)OC(C)C)C1c1cccc([N+](=O)[O-])c1 (stereo not drawn) | inactive: 0.206
31 | O=c1n(CCCN2CCN(c3cccc(Cl)c3)CC2)nc2ccccn12 | inactive: 0.069
32 | CN1C(=O)N(c2cc(Cl)cc(Cl)c2)C(=O)[C@]12CN(Cc1cc(C(=O)O)cs1)C[C@H]2c1ccc(C#N)cc1 | inactive: 0.256
33 | C=C(NC(=O)C(=C)NC(=O)c1csc(C2=NC3c4csc(n4)C4NC(=O)c5csc(n5)C(C(C)(O)C(C)O)NC(=O)C5CSC(=N5)C(=CC)NC(=O)C(C(C)O)NC(=O)c5csc(n5)C3(CC2)NC(=O)C(C)NC(=O)C(=C)NC(=O)C(C)NC(=O)C(C(C)CC)NC2C=Cc3c(C(C)O)cc(nc3C2O)C(=O)OC4C)n1)C(N)=O (stereo not drawn) | active: 1
34 | O=C1CCc2ccc(OCCCCN3CCN(c4cccc(Cl)c4Cl)CC3)cc2N1 | active: 0.67
35 | CCCC[C@@H](NC(=O)[C@@H](Cc1cn(C(=O)OC)c2ccccc12)NC(=O)[C@H](CC(C)(C)C)NC(=O)N1[C@H](C)CCC[C@@H]1C)C(=O)O | active: 0.417
36 | O=C(CCNNC(=O)c1ccncc1)NCc1ccccc1 | inactive: 0.251
37 | c1cc(OCCN2CCCCC2)cc(-c2n[nH]c3ccc(-c4ncn[nH]4)cc23)c1 | active: 0.806
38 | CCCCC(C)(O)C/C=C/[C@H]1[C@H](O)CC(=O)[C@@H]1CCCCCCC(=O)OC (stereo partly drawn) | active: 0.714
39 | O=C(/C=C/c1cccnc1)NCCCCC1CCN(C(=O)c2ccccc2)CC1 | active: 0.971
40 | Oc1ccc(-c2nc(-c3ccc(F)cc3)c(-c3ccncc3)[nH]2)cc1 | active: 0.861
41 | CC(=O)N[C@@H](CS)C(=O)O | active: 0.561

Row | SMILES | mean average precision
42 | CC(OC(=O)NCC1(CC(=O)O)CCCCC1)OC(=O)C(C)C (stereo not drawn) | active: 0.861
43 | OC[C@H]1O[C@@H](n2cnc3c2NC=NC[C@H]3O)C[C@@H]1O | active: 0.933
44 | O=c1ccc2ccccc2o1 | inactive: 0.183
45 | Cc1ccc(Cl)c(Nc2ccccc2C(=O)O)c1Cl | inactive: 0.193
46 | CCCCCCCC/C=C\CCCCCCCC(=O)N[C@@H](CO)Cc1ccc(O)cc1 | active: 0.689
47 | Nc1nnc(Sc2ncc([N+](=O)[O-])s2)s1 | active: 1
48 | Nc1nc(=S)c2[nH]cnc2[nH]1 | active: 1
49 | c1ccc(C(O[C@@H]2CCCN(CCc3ccc4c(c3)OCO4)C2)c2ccccc2)cc1 | inactive: 0.236
50 | COc1cc2c(Oc3ccc4[nH]c(C)cc4c3F)ncnc2cc1OCCCN1CCCC1 | active: 1
51 | O=C(NCCN1CCC(n2c(=O)[nH]c3cc(Cl)ccc32)CC1)c1ccc(F)cc1 | active: 1
52 | CCOC(=O)C(C)=O | inactive: 0.208
53 | c1ccc(-c2nn3c(c2-c2ccnc4cc(OCCN5CCOCC5)ccc24)CCC3)nc1 | active: 1
54 | Cc1ccc(NC(=O)c2cccc(N(C)C)c2)cc1NC(=O)c1ccc(O)cc1 | active: 0.958
55 | CC[C@@H]1C(=O)N(C)c2cnc(Nc3ccc(C(=O)NC4CCN(C)CC4)cc3OC)nc2N1C1CCCC1 | active: 1
56 | CCCc1cc(C)[nH]c(=O)c1CNC(=O)c1cc(-c2ccc(N3CCN(C(C)C)CC3)nc2)cc2c1cnn2C(C)C | active: 1
57 | Nc1nc(N)c2nc(-c3ccccc3)c(N)nc2n1 | active: 0.857
58 | NC(CO)(CO)CO | active: 0.409
